# Assay results from the supplement of paper PMC8728848.
# Some of the results follow.
# Experiments:
# Test in all cases: glycan array binding signal (z-score within array); higher = stronger binding
# Conditions in all cases: glycan notation: IUPAC condensed, linker removed
# [1] = biological target: GalNAc3S(b1-4)GlcNAc
# Outline: (§1)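 The Consortium for Functional Glycomics database supplied 3228 glycan arrays, of which those lacking an available protein sequence were dropped. The binding signal, a within-array Z-score, was averaged across arrays of the same protein sequence and across linkers. Negative scores can be read as non-binding.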
# [2] = biological target: GalNAc3S(b1-4)GlcNAc3S
# Outline: as §1
# [3] = biological target: GalNAc4S6S(b1-4)GlcNAc
# Outline: as §1
# [4] = biological target: GalNAc6S(b1-4)GlcNAc
# Outline: as §1
# [5] = biological target: Glc(a1-4)Glc
# Outline: as §1
# [6] = biological target: Glc(a1-4)Glc(a1-4)Glc(a1-4)Glc
# Outline: as §1
# [7] = biological target: Glc(a1-6)Glc(a1-6)Glc
# Outline: as §1
# [8] = biological target: Glc(a1-6)Glc(a1-6)Glc(a1-6)Glc
# Outline: as §1
# [9] = biological target: Glc(b1-4)Glc
# Outline: as §1
# [10] = biological target: Glc(b1-6)Glc
# Outline: as §1
# [11] = biological target: GlcA(b1-3)Gal
# Outline: as §1
# [12] = biological target: GlcA(b1-3)GlcNAc
# Outline: as §1
# [13] = biological target: GlcA(b1-6)Gal
# Outline: as §1
# [14] = biological target: GlcNAc(a1-3)Gal(b1-4)GlcNAc
# Outline: as §1
# [15] = biological target: GlcNAc(a1-4)Gal(b1-3)GlcNAc
# Outline: as §1
# [16] = biological target: GlcNAc(a1-4)Gal(b1-4)GalNAc
# Outline: as §1
# [17] = biological target: GlcNAc(a1-4)Gal(b1-4)GlcNAc
# Outline: as §1
# [18] = biological target: GlcNAc(a1-4)Gal(b1-4)GlcNAc(b1-3)Gal(b1-4)Glc
# Outline: as §1
# [19] = biological target: GlcNAc(a1-4)Gal(b1-4)GlcNAc(b1-3)Gal(b1-4)GlcNAc
# Outline: as §1
# [20] = biological target: GlcNAc(a1-4)Gal(b1-4)GlcNAc(b1-3)Gal(b1-4)GlcNAc(b1-3)Gal(b1-4)GlcNAc
# Outline: as §1
# [21] = biological target: GlcNAc(a1-4)Gal(b1-4)GlcNAc(b1-3)Gal(b1-4)[Fuc(a1-3)]GlcNAc(b1-3)Gal(b1-4)[Fuc(a1-3)]GlcNAc
# Outline: as §1
# [22] = biological target: GlcNAc(a1-6)Gal(b1-4)GlcNAc
# Outline: as §1
# [23] = biological target: GlcNAc(b1-2)Gal(b1-3)GalNAc
# Outline: as §1
# [24] = biological target: GlcNAc(b1-2)Man(a1-3)[GlcNAc(b1-2)Man(a1-6)]Man(b1-4)GlcNAc(b1-4)GlcNAc
# Outline: as §1
# [25] = biological target: GlcNAc(b1-2)Man(a1-3)[GlcNAc(b1-2)Man(a1-6)]Man(b1-4)GlcNAc(b1-4)[Fuc(a1-6)]GlcNAc
# Outline: as §1
# [26] = biological target: GlcNAc(b1-2)Man(a1-3)[GlcNAc(b1-4)][GlcNAc(b1-2)Man(a1-6)]Man(b1-4)GlcNAc(b1-4)GlcNAc
# Outline: as §1
# [27] = biological target: GlcNAc(b1-2)[GlcNAc(b1-4)]Man(a1-3)[GlcNAc(b1-2)Man(a1-6)]Man(b1-4)GlcNAc(b1-4)GlcNAc
# Outline: as §1
# [28] = biological target: GlcNAc(b1-2)[GlcNAc(b1-4)]Man(a1-3)[GlcNAc(b1-4)][GlcNAc(b1-2)Man(a1-6)]Man(b1-4)GlcNAc(b1-4)GlcNAc
# Outline: as §1
# [29] = biological target: GlcNAc(b1-2)[GlcNAc(b1-4)]Man(a1-3)[GlcNAc(b1-4)][GlcNAc(b1-2)[GlcNAc(b1-6)]Man(a1-6)]Man(b1-4)GlcNAc(b1-4)GlcNAc
# Outline: as §1
# [30] = biological target: GlcNAc(b1-2)[GlcNAc(b1-4)]Man(a1-3)[GlcNAc(b1-4)][GlcNAc(b1-2)[GlcNAc(b1-6)]Man(a1-6)]Man(b1-4)GlcNAc(b1-4)[Fuc(a1-6)]GlcNAc
# Outline: as §1
# [31] = biological target: GlcNAc(b1-2)[GlcNAc(b1-6)]Man(a1-6)[GlcNAc(b1-2)Man(a1-3)]Man(b1-4)GlcNAc(b1-4)GlcNAc
# Outline: as §1
# [32] = biological target: GlcNAc(b1-2)[GlcNAc(b1-6)]Man(a1-6)[GlcNAc(b1-2)Man(a1-3)]Man(b1-4)GlcNAc(b1-4)[Fuc(a1-6)]GlcNAc
# Outline: as §1
# [33] = biological target: GlcNAc(b1-2)[GlcNAc(b1-6)]Man(a1-6)[GlcNAc(b1-2)Man(a1-3)][GlcNAc(b1-4)]Man(b1-4)GlcNAc(b1-4)GlcNAc
# Outline: as §1
# [34] = biological target: GlcNAc(b1-3)Gal
# Outline: as §1
# [35] = biological target: GlcNAc(b1-3)Gal(b1-3)GalNAc
# Outline: as §1
# [36] = biological target: GlcNAc(b1-3)Gal(b1-4)Glc
# Outline: as §1
# [37] = biological target: GlcNAc(b1-3)Gal(b1-4)GlcNAc
# Outline: as §1
# [38] = biological target: GlcNAc(b1-3)Gal(b1-4)GlcNAc(b1-3)Gal(b1-4)GlcNAc
# Outline: as §1
# [39] = biological target: GlcNAc(b1-3)GalNAc
# Outline: as §1
# [40] = biological target: GlcNAc(b1-3)Man
# Outline: as §1
# [41] = biological target: GlcNAc(b1-3)[GlcNAc(b1-4)][GlcNAc(b1-6)]GlcNAc
# Outline: as §1
# [42] = biological target: GlcNAc(b1-3)[GlcNAc(b1-6)]Gal(b1-4)GlcNAc
# Outline: as §1
# [43] = biological target: GlcNAc(b1-3)[GlcNAc(b1-6)]GalNAc
# Outline: as §1
# [44] = biological target: GlcNAc(b1-3)[GlcNAc(b1-6)]GlcNAc(b1-4)GlcNAc
# Outline: as §1
# [45] = biological target: GlcNAc(b1-4)Gal(b1-4)GlcNAc
# Outline: as §1
# [46] = biological target: GlcNAc(b1-4)GlcNAc
# Outline: as §1
# [47] = biological target: GlcNAc(b1-4)GlcNAc(b1-4)GlcNAc
# Outline: as §1
# [48] = biological target: GlcNAc(b1-4)GlcNAc(b1-4)GlcNAc(b1-4)GlcNAc(b1-4)GlcNAc
# Outline: as §1
# [49] = biological target: GlcNAc(b1-4)GlcNAc(b1-4)GlcNAc(b1-4)GlcNAc(b1-4)GlcNAc(b1-4)GlcNAc
# Outline: as §1
# [50] = biological target: GlcNAc(b1-4)[GlcNAc(b1-6)]GalNAc
# Outline: as §1
# [51] = biological target: GlcNAc(b1-6)Gal(b1-4)GlcNAc
# Outline: as §1
# [52] = biological target: GlcNAc(b1-6)GalNAc
# Outline: as §1
# [53] = biological target: GlcNAc3Prop(b1-4)GlcNAc
# Outline: as §1
# [54] = biological target: GlcNAc6S(b1-3)Gal(b1-4)GlcNAc
# Outline: as §1
# [55] = biological target: Kdn(a2-3)Gal(b1-3)GalNAc
# Outline: as §1
# [56] = biological target: Kdn(a2-3)Gal(b1-3)GlcNAc
# Outline: as §1
# [57] = biological target: Kdn(a2-3)Gal(b1-4)Glc
# Outline: as §1
# [58] = biological target: Kdn(a2-3)Gal(b1-4)GlcNAc
# Outline: as §1
# [59] = biological target: Kdn(a2-3)Gal(b1-4)[Fuc(a1-3)]GlcNAc
# Outline: as §1
# [60] = biological target: Kdn(a2-6)Gal(b1-4)GlcNAc
# Outline: as §1
binder,measurement,setting,value
"StcE (Escherichia coli), O82882.2 (protein) ADNNSAIYFNTSQPINDLQGSLAAEVKFAQSQILPAHPKEGDSQPHLTSLRKSLLLVRPVKADDKTPVQVEARDDNNKILGTLTLYPPSSLPDTIYHLDGVPEGGIDFTPHNGTKKIINTVAEVNKLSDASGSSIHSHLTNNALVEIHTANGRWVRDIYLPQGPDLEGKMVRFVSSAGYSSTVFYGDRKVTLSVGNTLLFKYVNGQWFRSGELENNRITYAQHIWSAELPAHWIVPGLNLVIKQGNLSGRLNDIKIGAPGELLLHTIDIGMLTTPRDRFDFAKDKEAHREYFQTIPVSRMIVNNYAPLHLKEVMLPTGELLTDMDPGNGGWHSGTMRQRIGKELVSHGIDNANYGLNSTAGLGENSHPYVVAQLAAHNSRGNYANGIQVHGGSGGGGIVTLDSTLGNEFSHEVGHNYGLGHYVDGFKGSVHRSAENNNSTWGWDGDKKRFIPNFYPSQTNEKSCLNNQCQEPFDGHKFGFDAMAGGSPFSAANRFTMYTPNSSAIIQRFFENKAVFDSRSSTGFSKWNADTQEMEPYEHTIDRAEQITASVNELSESKMAELMAEYAVVKVHMWNGNWTRNIYIPTASADNRGSILTINHEAGYNSYLFINGDEKVVSQGYKKSFVSDGQFWKERDVVDTREARKPEQFGVPVTTLVGYYDPEGTLSSYIYPAMYGAYGFTYSDDSQNLSDNDCQLQVDTKEGQLRFRLANHRANNTVMNKFHINVPTESQPTQATLVCNNKILDTKSLTPAPEGLTYTVNGQALPAKENEGCIVSVNSGKRYCLPVGQRSGYSLPDWIVGQEVYVDSGAKAKVLLSDWDNLSYNRIGEFVGNVNPADMKKVKAWNGQYLDFSKPRSMRVVYK",glycan array binding signal (z-score),[1],-0.153
same,glycan array binding signal (z-score),[2],-0.152
same,glycan array binding signal (z-score),[3],-0.165
same,glycan array binding signal (z-score),[4],-0.148
same,glycan array binding signal (z-score),[5],-0.3
same,glycan array binding signal (z-score),[6],-0.163
same,glycan array binding signal (z-score),[7],-0.146
same,glycan array binding signal (z-score),[8],-0.148
same,glycan array binding signal (z-score),[9],-0.419
same,glycan array binding signal (z-score),[10],-0.234
same,glycan array binding signal (z-score),[11],-0.134
same,glycan array binding signal (z-score),[12],-0.083
same,glycan array binding signal (z-score),[13],-0.166
same,glycan array binding signal (z-score),[14],-0.161
same,glycan array binding signal (z-score),[15],-0.132
same,glycan array binding signal (z-score),[16],0.257
same,glycan array binding signal (z-score),[17],0.079
same,glycan array binding signal (z-score),[18],-0.11
same,glycan array binding signal (z-score),[19],-0.134
same,glycan array binding signal (z-score),[20],-0.17
same,glycan array binding signal (z-score),[21],3.96
same,glycan array binding signal (z-score),[22],-0.157
same,glycan array binding signal (z-score),[23],0.107
same,glycan array binding signal (z-score),[24],-0.128
same,glycan array binding signal (z-score),[25],-0.14
same,glycan array binding signal (z-score),[26],-0.167
same,glycan array binding signal (z-score),[27],-0.15
same,glycan array binding signal (z-score),[28],-0.154
same,glycan array binding signal (z-score),[29],-0.148
same,glycan array binding signal (z-score),[30],-0.164
same,glycan array binding signal (z-score),[31],-0.167
same,glycan array binding signal (z-score),[32],-0.114
same,glycan array binding signal (z-score),[33],-0.178
same,glycan array binding signal (z-score),[34],0.13
same,glycan array binding signal (z-score),[35],-0.285
same,glycan array binding signal (z-score),[36],-0.164
same,glycan array binding signal (z-score),[37],-0.354
same,glycan array binding signal (z-score),[38],-0.12
same,glycan array binding signal (z-score),[39],-0.125
same,glycan array binding signal (z-score),[40],-0.175
same,glycan array binding signal (z-score),[41],-0.174
same,glycan array binding signal (z-score),[42],-0.151
same,glycan array binding signal (z-score),[43],-0.253
same,glycan array binding signal (z-score),[44],-0.323
same,glycan array binding signal (z-score),[45],-0.164
same,glycan array binding signal (z-score),[46],-0.149
same,glycan array binding signal (z-score),[47],-0.348
same,glycan array binding signal (z-score),[48],-0.15
same,glycan array binding signal (z-score),[49],-0.161
same,glycan array binding signal (z-score),[50],0.189
same,glycan array binding signal (z-score),[51],-0.155
same,glycan array binding signal (z-score),[52],-0.054
same,glycan array binding signal (z-score),[53],-0.117
same,glycan array binding signal (z-score),[54],-0.145
same,glycan array binding signal (z-score),[55],-0.154
same,glycan array binding signal (z-score),[56],-0.092
same,glycan array binding signal (z-score),[57],-0.177
same,glycan array binding signal (z-score),[58],0.177
same,glycan array binding signal (z-score),[59],-0.152
same,glycan array binding signal (z-score),[60],-0.17
